# Test results taken from the supplement of paper PMC5499739.
# The full ranking holds about 16,000 sequences; the median of “Z-score” is about -0.37, and the highest 2% start at about 3.2. The list shows a part of the results.
# System: RBM10 RRM1-ZnF (GST-tagged construct)
# Test: RNAcompete 7-mer binding Z-score; higher = stronger binding preference
# Description: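 RNAcompete: 20 pmol GST-tagged RBM10 RNA-binding constructs were incubated with a designed RNA pool of about 241,000 sequences up to 41 nt (1.5 nmol) on glutathione beads for 30 min at 4 °C and washed. Bound RNAs were identified by microarray hybridisation. Each RNA 7-mer is scored by a one-sided Z-score of its enrichment, computed over probes that contain the 7-mer within longer pool sequences.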
row,Sequence,RNAcompete 7-mer binding Z-score
1,AAUCCGU,-0.815
2,UUUAAUU,-0.568
3,CUUCCGU,-0.733
4,AGGAACA,0.569
5,UUAAGUA,-0.331
6,CGAGCCG,-0.331
7,UACGGUU,0.404
8,AGGCGCG,0.322
9,CUUGAAU,-0.655
10,CUCGUGA,-0.581
11,ACAUAGC,-0.301
12,ACCCCAA,-0.418
13,UCCGAUU,-0.75
14,GAGAUAU,0.465
15,UGUGGGC,2.06
16,UCCUCGG,-0.337
17,AAACUUC,-0.678
18,GUAAUUU,-0.396
19,AGUAGAA,0.998
20,GAUGACC,-0.149
21,AGCGGAC,1.16
22,AUACUGU,-0.681
23,UAUGCCA,-0.646

row,Sequence,RNAcompete 7-mer binding Z-score
1,AUUCAUA,-0.548
2,UGGUCCC,-0.171
3,AAAGCCC,-0.675
4,ACUAAUG,-0.24
5,UUAAUCA,-0.555
6,UCGGAAG,0.465
7,UUUCCAA,-0.847
8,AUGCCCG,-0.36
9,CUGAUUG,-0.223
10,GGUGACC,0.469
11,CCCGAGG,0.384
12,ACCAGUU,-0.655
13,UAUCCUG,-0.857
14,CUUCGUC,-0.854
15,GUACUUA,-0.422
16,AAAGAAA,0.017
17,GCAAUUG,0.0625
18,AUAAUUG,-0.311
19,UGAACGA,0.0853
20,AAAUUCA,-0.668
21,UUGGUCG,0.215
22,GCCCAGA,-0.535
23,GAUGCAC,-0.155

row,Sequence,RNAcompete 7-mer binding Z-score
1,CUAUUAU,-0.776
2,GCUAUAC,-0.545
3,GAUCGUU,-0.405
4,ACGUUGG,0.582
5,GUAUGCG,0.641
6,GGGGUCC,1.67
7,UGUCGUU,-0.496
8,CUGGCCU,-0.685
9,AAUGGAA,3.35
10,CGCGAAG,-0.373
11,UUCGAAU,-0.743
12,CGAACCG,-0.461
13,GAGAUGA,1.03
14,UCCACGG,-0.113
15,ACUCGUU,-0.756
16,CUUCAUC,-0.792
17,UCCCUCU,-0.714
18,CAUAAAG,-0.474
19,AUCAGUA,-0.233
20,UUAGCGG,0.192
21,CGGGAGC,1.5
22,CUACAAC,-0.668
23,GUCGGUC,-0.214

row,Sequence,RNAcompete 7-mer binding Z-score
1,ACGGGCG,1.43
2,UCUUCAU,-0.782
3,GCGCCUU,-0.678
4,GGCCAGA,-0.00246
5,GGCCGGG,1.35
6,UCCUACC,-0.753
7,AAAAGCU,-0.396
8,UGGGCCU,0.335
9,UUCUGUU,-0.633
10,AUCGAGA,0.0788
11,UAGGUAU,1.04
12,AGCAAAG,0.774
13,AUCUGAA,-0.62
14,GCUUGAC,-0.467
15,CUCAUGA,-0.675
16,ACUGCAU,-0.539
17,GGCGGGU,2.9
18,AGCUUUA,-0.613
19,UUGCUCC,-0.591
20,ACUUUUG,-0.863
21,CCUAAUG,-0.604
22,UAAGGAA,1.64
23,CUUGACA,-0.733

row,Sequence,RNAcompete 7-mer binding Z-score
1,CCUAUCG,-0.876
2,AGUCCGA,-0.685
3,CCAGCAA,-0.617
4,GCAUUCG,-0.444
5,CCUCUAC,-0.772
6,UCUGGUC,-0.461
7,AUUGUUU,-0.535
8,AUUUACA,-0.675
9,GGCCAUC,-0.584
10,GGACAUU,0.335
11,UUACUGC,-0.779
12,UGACGCC,-0.353
13,CGUUCGG,-0.285
14,AAAAGCC,-0.681
15,CAGGUUU,0.56
16,CAACAAU,-0.61
17,GGAAGAC,1.97
18,AGCUGUC,-0.802
19,AGGGCGA,2.39
20,CUAUCUC,-0.802
21,GGGUUAG,4.38
22,UGAAUCC,-0.516
23,GCUCUAU,-0.652

row,Sequence,RNAcompete 7-mer binding Z-score
1,CGCUUAG,-0.6
2,GCGAGGU,2.06
3,AAACCUU,-0.984
4,GAGGUCC,-0.103
5,UGAAGUU,-0.0414
6,UGAUCCA,-0.694
7,AGGUGCG,1.97
8,UUGUUAA,-0.578
9,GGUCCCU,-0.334
10,AGGAAUC,-0.0739
11,CAAGCGA,0.0788
12,UAGCUAU,-0.574
13,GCUAACU,-0.331
14,AGCCAUC,-0.75
15,CUAAUGA,-0.448
16,CAGCGCC,-0.48
17,UAUACCA,-0.655
18,GUCUUGC,-0.763
19,CCGUUCA,-0.785
20,ACUUGCG,-0.678
21,AUUAUUG,-0.405
22,UUGUCAA,-0.591
23,UGGGCCC,0.332

row,Sequence,RNAcompete 7-mer binding Z-score
1,CGUCCCG,-0.594
2,CUCCGCU,-0.652
3,UUUAUGU,-0.386
4,GAUAGAC,0.069
5,CAUACCG,-0.72
6,UUUGCGU,-0.642
7,UAUACGA,-0.412
8,GUAAAUC,-0.386
9,AUGCUAU,-0.474
10,UGUGCGC,-0.00896
11,CAAUGCU,-0.607
12,ACGUGUU,-0.389
13,GAGCUCC,-0.47
14,AAAUCAG,-0.36
15,GAUAGGU,2.94
16,UGAAAGC,-0.0577
17,GAUACCC,-0.487
18,CAUAGGC,-0.305
19,AUCCGCG,-0.626
20,AAAUAGG,1.07
21,GAUACCA,-0.451
22,GGUAUGC,1.48
23,AAAUACA,-0.275

row,Sequence,RNAcompete 7-mer binding Z-score
1,UUGGUAU,0.647
2,AAAUACU,-0.587
3,ACCGAGU,-0.642
4,GACAACG,0.102
5,ACUGUGC,-0.535
6,GCAAGAA,0.27
7,CUCGGAU,-0.184
8,GUUAGUG,1.03
9,GUCCGCC,-0.662
10,UGAGAUC,-0.36
11,CUCAGCU,-0.707
12,GGACGAG,2.1
13,UUAUUAU,-0.444
14,CGCACAU,-0.535
15,GCCCGCA,-0.451
16,UUGACUU,-0.698
17,AGACUGU,-0.61
18,GCUUGUG,-0.415
19,AGGGAUC,1.02
20,GAAUUGU,0.199
21,CUCCGAA,-0.659
22,AGCCCGG,-0.366
23,GGUCUAC,-0.22
